# Measured values: the BET-seq Pho4 binding data (Le et al. 2018)
# The other results are listed elsewhere or left out. These are noisy estimates, calculated here from bound and input reads.
# Molecular target: T1, Pho4 (S. cerevisiae) (UniProt P07270)
# T1 sequence: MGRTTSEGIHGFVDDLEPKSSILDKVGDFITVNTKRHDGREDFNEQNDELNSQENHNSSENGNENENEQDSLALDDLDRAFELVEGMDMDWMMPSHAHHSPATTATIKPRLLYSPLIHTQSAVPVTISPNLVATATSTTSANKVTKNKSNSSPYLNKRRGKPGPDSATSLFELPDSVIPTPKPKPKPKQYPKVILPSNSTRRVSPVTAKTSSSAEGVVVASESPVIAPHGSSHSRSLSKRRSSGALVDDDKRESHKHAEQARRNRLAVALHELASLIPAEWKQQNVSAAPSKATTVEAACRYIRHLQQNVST
# Assay: relative binding free energy (BET-seq); higher = weaker binding
# Settings: reference: library average
row,Sequence,relative binding free energy [kcal/mol]
1,CGGCACACGTGTTGTG,0.05
2,GATTCCACGTGGAGTT,0.24
3,AGTGACACGTGGTATT,-0.01
4,GGTATCACGTGCTCGT,0.15
5,GGCAGCACGTGTTAGC,0.2
6,TTGATCACGTGTCGAT,0.33
7,CGTATCACGTGTGAGC,0.26
8,TAAATCACGTGTTTGA,0.06
9,AATTGCACGTGGTTCT,-0.02
10,TGAGTCACGTGCTTTG,0.09
11,GGCGGCACGTGGGTTA,-0.21
12,TTCAACACGTGTGAGG,0.27
13,ATGGCCACGTGTTTTT,-0.04
14,AGAATCACGTGTGAGA,0.24
15,TGAGACACGTGAGTAT,0.24
16,AATGGCACGTGTGTCT,0.01
17,AGCGGCACGTGGGGAA,-0.22
18,GGAAACACGTGAGGGG,0.29
19,TGGTACACGTGTTATG,0.05
20,GGATTCACGTGTCGGT,0.32
21,CGTTTCACGTGTGTCA,0.28

row,Sequence,relative binding free energy [kcal/mol]
1,TGTGCCACGTGGGATA,-0.13
2,GTAAGCACGTGGTTGG,-0.21
3,GACTGCACGTGTATGG,0
4,TAGAGCACGTGGGCAT,-0.19
5,GGGGCCACGTGCAGGG,-0.2
6,TGCGTCACGTGTAATG,0.21
7,GGGTGCACGTGTACAT,0.07
8,TGGGGCACGTGCTTCA,-0.14
9,GTCTGCACGTGGTGGC,-0.03
10,TTGATCACGTGCGGTG,0.14
11,AGATACACGTGAGGGT,0.16
12,AGAGTCACGTGCGGGA,0.07
13,TGGGGCACGTGTAGTA,-0.04
14,CGAAGCACGTGTGTGA,0.03
15,TGGTACACGTGGGAGG,0.03
16,TGTTTCACGTGGATCT,0.16
17,TGAGTCACGTGGTTAC,0.06
18,GGCATCACGTGGTGGT,0.22
19,TTTGGCACGTGAGCGA,-0.06
20,GGTGACACGTGGCGGC,-0.1
21,GGGAGCACGTGTTTCA,0.01

row,Sequence,relative binding free energy [kcal/mol]
1,CTGGGCACGTGATGAA,-0.01
2,AGGGTCACGTGTACTT,0.14
3,GGGTTCACGTGTTATT,0.37
4,AGGTCCACGTGGGTCT,-0.16
5,CATATCACGTGGCGGT,0.24
6,GGTGACACGTGAAGAG,0.45
7,TGTAACACGTGAGTTC,0.26
8,TGTGCCACGTGTCAGG,-0.07
9,GGCGGCACGTGTATGA,0.1
10,TGATTCACGTGCGTGG,0.03
11,GTTGACACGTGAGTGA,0.27
12,GAGCACACGTGGAGTG,0.13
13,TGGGGCACGTGTTATT,-0.05
14,AGGATCACGTGGTTTG,0.18
15,GGTTTCACGTGAATAT,0.51
16,AAAGGCACGTGTTGAG,0
17,TGATCCACGTGGGGTA,-0.15
18,GCAGGCACGTGAGTAT,0.23
19,TGGGTCACGTGTTAGA,0.07
20,TCGGGCACGTGCGGGT,-0.22
21,AGGGGCACGTGATTAA,0
